Whole data set: some 110,000 compounds, median “z-score” near -0.1, cut for the highest 2% near 2. The list shows a part of the results. Active and inactive are the calls of the source.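 The calls were made as follows: active = z-score in the third read window above 3 or below -3; inactive = the rest.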

This experiment deals with Metabotropic glutamate receptor 8 (Rattus norvegicus) (UniProt P70579). As to the kind of experiment: mGluR8 Gi/Go-coupled signaling modulation – cell-based, rat, thallium flux, HTS, primary screen (AID 488969). The note with it: HEK293 rat mGluR8, GIRK (G protein-gated inwardly rectifying potassium channel) thallium flux, FluoZin2; at 10 µM; stronger effect = higher value; submaximal glutamate (EC20) added with thallium.
Chain of UniProt P70579 (P70579 whole entry, looked up): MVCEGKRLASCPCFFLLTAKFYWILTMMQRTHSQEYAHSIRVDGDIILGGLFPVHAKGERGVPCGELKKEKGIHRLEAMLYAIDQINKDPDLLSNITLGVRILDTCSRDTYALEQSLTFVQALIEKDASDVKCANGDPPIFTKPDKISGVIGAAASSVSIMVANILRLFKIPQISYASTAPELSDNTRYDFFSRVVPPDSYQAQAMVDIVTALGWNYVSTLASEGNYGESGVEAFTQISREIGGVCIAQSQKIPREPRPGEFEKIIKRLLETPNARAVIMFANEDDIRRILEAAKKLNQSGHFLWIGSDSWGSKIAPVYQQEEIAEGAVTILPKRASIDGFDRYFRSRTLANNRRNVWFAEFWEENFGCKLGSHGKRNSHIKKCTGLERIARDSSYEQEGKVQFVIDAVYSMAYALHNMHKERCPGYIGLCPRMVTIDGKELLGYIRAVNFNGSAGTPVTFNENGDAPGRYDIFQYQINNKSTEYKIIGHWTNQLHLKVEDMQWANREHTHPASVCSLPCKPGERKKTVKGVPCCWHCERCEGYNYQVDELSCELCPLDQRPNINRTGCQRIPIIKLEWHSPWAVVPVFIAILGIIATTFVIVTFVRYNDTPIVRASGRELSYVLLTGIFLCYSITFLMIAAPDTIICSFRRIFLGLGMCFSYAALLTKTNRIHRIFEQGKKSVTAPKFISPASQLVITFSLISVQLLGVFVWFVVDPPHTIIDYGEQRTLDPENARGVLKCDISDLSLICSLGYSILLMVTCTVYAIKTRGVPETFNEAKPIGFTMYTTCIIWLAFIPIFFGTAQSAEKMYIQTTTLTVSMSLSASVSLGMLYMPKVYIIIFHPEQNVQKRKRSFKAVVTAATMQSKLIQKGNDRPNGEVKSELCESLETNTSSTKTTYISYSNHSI
Compound `CCOC(=O)c1ccc2[nH]c3c(c2c1)CN(C)CC3` returned a z-score of -0.323.
Turning to `O=C(Nc1ncc(Cc2cccc(Cl)c2)s1)c1ccc([N+](=O)[O-])cc1`, the z-score was -0.0217.
As for `CC1=Nn2c(nc3sc4c(c3c2=O)CCCC4)SC1`, the figure is -0.324.
As for `CCCCN(CCCC)C(=O)c1cc2ccccc2c(=O)o1`, the figure is -0.247; as for `COCC(=O)Nc1ccc([N+](=O)[O-])cc1C`, 2.3.
Next, `Cc1c(NC(=O)C2(c3ccc(Cl)cc3)CCCC2)c(=O)n(-c2ccccc2)n1C`: -0.385; `CC(C)CCn1nnnc1C(C(C)C)N1CCC(C(N)=O)CC1` (stereo not drawn): 0.914; `O=C(C1CC(c2ccc(F)cc2)=NO1)N1CCc2ccccc2C1` (stereo not drawn): -0.63.
The compound `Cc1ccc(NC(=S)N/N=C/c2ccc(OCCC(C)C)cc2)c(C)c1` showed a z-score of 0.599.
Consider `COCCOC(=O)C1=C(C)NC(=S)NC1/C=C/c1ccccc1` (stereo not drawn), for which the z-score stood at 0.0589.
Next, `CCCOC(=O)Nc1ccc(S(=O)(=O)Nn2cnnc2)cc1`: 0.519.
The compound `COc1ccc(C2=NN(C)C(=NCc3ccccc3)SC2)cc1` returned a z-score of 0.247.
Next, `O=c1cc(O)c2c(=O)n(-c3ccccc3)c3c(c2o1)CCCCC3`: -0.286; `CCNc1ccc(S(=O)(=O)N(C)C)cc1NCC(=O)Nc1c(F)cccc1F`: 0.108; `C=CCNC(=O)CN(c1ccc(F)c(Cl)c1)S(C)(=O)=O`: -0.135.
As for `CSc1nc(N)nc(SCC(=O)C(C)(C)C)c1C#N`, the z-score is -0.104.
Next, `O=S(=O)(NCc1ccco1)c1ccc(S(=O)(=O)N2CCCCC2)cc1`: -0.0699.
Take `CC1=CC(C)(C)Nc2ccc(OS(=O)(=O)c3ccc(C)cc3)cc21`: the z-score was -0.187.
Take `O=S1(=O)CCN(Cc2ccccc2Cl)CC1`: the z-score amounted to 0.055.
As for `Fc1ccc(CN2CCN(c3ncccn3)CC2)cc1`, the figure is -0.0123; as for `Cn1c(=O)c(C(=S)NC(=O)C2CC2)c(N)n(Cc2ccccc2)c1=O`, 0.362.
As for `O=C(COC(=O)c1cc(-c2cccs2)nc2ccccc12)NCc1ccco1`, the figure is -1.09.
Next, `COC(=O)c1sc(NC(=O)c2cc3c(s2)CCCC3)nc1C`: -0.0712; `O=C1SC(c2ccccc2)=N/C1=C/c1ccco1`: 0.0802.
`O=C(Nc1ccc(Br)cc1)c1ccc(Br)c(S(=O)(=O)Nc2cccnc2)c1` yielded a z-score of -0.273.
As for `Cc1ccc(C(C)C)c(OCc2ccc(-c3nnco3)cc2)c1`, the z-score stood at 0.696.
As for `COc1ccc(Nc2nnc(C)c(=O)[nH]2)cc1`, the figure is -0.104.
In turn, `CCC(CO)n1cnnc1-c1ccncc1` (stereo not drawn) came in with a z-score of 0.347.
`CN1C(=O)C(O)(C2COC(C)(C)CC2=O)c2ccccc21` (stereo not drawn): the z-score was -1.06.
Take `O=C(O)C1CCCN1C(=O)c1cccs1` (stereo not drawn): the z-score came to 0.319.
For `COc1ccccc1C(=O)n1nc(C)cc1C`, the z-score was -0.428.
Compound `Cc1ccsc1C(=O)OCC(=O)N1CC(=O)Nc2ccccc21` yielded a z-score of -0.081.
Next, `CCC(C)NC(=O)CN1C(=O)CC(C)(C)S(=O)(=O)c2ccccc21` (stereo not drawn): active: 4.26.
Next, `COCCn1c(SCc2ccc(C(=O)OC)o2)nnc1-c1c[nH]c2ccccc12`: 0.184; `COc1cc(/C=N/Nc2nc(C)cc(C)n2)ccc1OC(=O)c1ccco1`: -0.738.
On to `COC(=O)c1cnn(C(=O)c2ccccc2Br)c1N`, for which the z-score turned out to be 0.0132.
Next, `Cc1ccc(OCc2cn3cccnc3n2)cc1`: 0.0265; `Cc1ccc(/C=C/C(=O)Nc2cc(=O)n(C)c(=O)n2C)o1`: -0.19; `CC(=O)N1CCc2cc(C(=O)CN3CCC(C)CC3)ccc21`: -0.0445.
For `CCCCN(CCCC)S(=O)(=O)c1ccc(NC(=O)c2ccc([N+](=O)[O-])cc2Cl)cc1`, the z-score was active: 3.01.
Next, `COc1ccc(N2CC(=O)N(c3ccccc3)C2=S)cc1`: -0.224; `O=C(Nc1nncs1)c1ccc(Br)c(S(=O)(=O)N2CCCC2)c1`: -0.0849; `Cc1ccc(OCc2nc(C#N)c(NCc3ccco3)o2)cc1`: -0.912.
For the compound `OCCCCNCc1ccc(OCc2ccc(Cl)cc2Cl)cc1`, the z-score was 1.19.
In turn, `O=C(CN1CCN(c2ccccc2)CC1)N1CCc2[nH]c3ccccc3c2C1` came in with a z-score of -0.185.
As to `CC(CCc1ccccc1)NC(=O)c1ccncc1` (stereo not drawn), the z-score is -0.0978.
With `O=C(NCc1ccc(N2CCCC2=O)cc1)Nc1ccccc1`, the z-score was determined as 0.218.
The compound `O=[N+]([O-])c1cccc(-c2n[nH]c(=S)n2Cc2ccccc2)c1` registered a z-score of -0.309.
Next, `O=C(NCC1CCCO1)c1ccc(CS(=O)(=O)c2c(Cl)cccc2Cl)o1` (stereo not drawn): -0.0453; `CCCC(=O)N1CCN(c2ccc(NC(=O)c3cc4ccccc4o3)cc2)CC1`: -0.583; `CCC(=O)n1nc(-c2ccco2)nc1SCc1ccccc1`: -0.247.
On to `O=C(O)CSc1nc(SCc2ccccc2Cl)nc2c1CCCC2`, for which the z-score was -0.369.
As for `Cc1noc(C)c1S(=O)(=O)N1CCC(C(=O)N2CCN(c3ccc(F)cc3)CC2)CC1`, the figure is -0.488; as for `CCOc1cc(C(=O)Nc2c(C)ccc3nsnc23)cc(OCC)c1OCC`, -0.748.
Next, `Clc1ccc(-c2noc(CSc3nnc(-c4ccncc4)n3-c3ccccc3)n2)cc1`: -0.517; `Cc1c(Cl)cccc1NC(=O)c1cc(C2CC2)on1`: -0.0765.
As for `O=C(CSc1nnc(-c2ccc(S(=O)(=O)N3CCOCC3)cc2)o1)c1ccccc1F`, the z-score was found to be 0.206.
Next, `Cc1cc(N2C(=O)C3C4c5ccccc5C(c5ccccc54)C3C2=O)no1` (stereo not drawn): -0.47; `Cc1ccc(-c2nnc3c(C(F)(F)F)nc4ccccc4n23)cc1`: 0.374.
Take `CCOC(=O)c1cc2cc(CC(=O)c3ccc(OCC)cc3O)ccc2o1`: the z-score was -0.146.
As for `O=C(NC(c1ccccc1)c1ccccc1)C1CCCC1`, the figure is -0.48.
Next, `COc1cccc(NC(=O)C(NCC(C)(C)CN(C)C)c2ccccc2)c1` (stereo not drawn): 0.656; `CCCCCC(=O)OC(CN1CCCCC1)CN1CCCC1=O` (stereo not drawn): 0.0115.
As for `COc1ccccc1CN(Cc1cc2cc3c(cc2[nH]c1=O)OCCO3)Cc1nnnn1Cc1ccco1`, the figure is -0.31; as for `O=C(NCCC1=CCCCC1)c1ccc([N+](=O)[O-])cc1`, -0.734; as for `N#Cc1c(/N=C/c2cc3ccccc3s2)sc2c1CCC2`, -0.0332.
The compound `CC1=C(C(=O)NCc2ccco2)C2(CCC(C)CC2)OC1=O` (stereo not drawn) gave a z-score of 0.426.
With `CC(=O)Oc1ccc2c(C)c(CC(C)O)c(=O)oc2c1` (stereo not drawn), the z-score amounted to 0.386.
In turn, `Nc1cccc(Cl)c1N1CCOCC1` gave a z-score of 0.479.
In turn, `O=C1c2ccccc2C(Nc2ccc(S(=O)(=O)N3CCOCC3)cc2)N1Cc1ccco1` (stereo not drawn) came in with a z-score of -0.228.
`CCOC(=O)N1CCN(S(=O)(=O)c2ccc(C(=O)Nc3ccc4c(c3)C(=O)NC4=O)cc2)CC1` gave a z-score of -0.209.
Compound `CCOc1ccccc1C(=O)Nc1cccc(-c2nnc(-c3ccccc3)o2)c1` had a z-score of -0.449.
In the case of `CN(C)N1C(N)=C(C#N)C(c2cccc3ccccc23)C2=C1CC(c1ccccc1)CC2=O` (stereo not drawn), the z-score was -0.215.
As for `COc1ccc(Cn2c(CCC(=O)N3CCN(c4ccccn4)CC3)nc3ncccc3c2=O)cc1`, the figure is -0.518; as for `CCCCN(C(=O)Nc1ccc(OCC)cc1)C1CCN(C(C)=O)CC1`, -0.227.
As to `COC(=O)c1ccc(CSc2nccn2C)cc1`, the z-score was -0.554.
As for `Cn1c(=O)c2c(nc(CN3CCN(C(=O)c4ccco4)CC3)n2Cc2ccc(F)cc2)n(C)c1=O`, the figure is -0.082; as for `O=C(NCCN1CCN(Cc2ccccc2)CC1)C1c2ccccc2C(=O)N2CCc3ccccc3C12` (stereo not drawn), -0.21.
For `c1ccc(-c2nnc(SCc3cn4ccsc4n3)o2)cc1`, the z-score was -0.506.
As for `Cc1ccc(S(=O)(=O)/N=C2/NC(=O)/C(=C\c3ccco3)S2)cc1`, the figure is 1.46; as for `O=C(CC12CC3CC(CC(C3)C1)C2)N/N=C/c1ccncc1`, 0.194.
As for `Cc1[nH]c(=O)[nH]c(=O)c1S(=O)(=O)N(C)Cc1ccccc1`, the figure is -0.445; as for `O=C(N/N=C/c1ccccc1F)c1ccc(COc2ccccc2Cl)o1`, -0.397.
Next, `CS(=O)(=O)N1CCN(Cc2ccccc2C(F)(F)F)CC1`: -0.195; `CN(Cc1cccs1)c1ncnc2sccc12`: -0.917; `CCN1CCN(CC(=O)Nc2cc(C)c(C)cc2[N+](=O)[O-])CC1`: -0.454.
`CCNC(=O)CC1SC(=Nc2cccc(Cl)c2C)N(C)C1=O` (stereo not drawn) returned a z-score of 0.271.
Next, `O=C(CCN1CCOCC1)Nc1ccccc1`: 0.275.
In turn, `Cn1c(=O)c2c(nc(SCC(=O)N3CCCCCC3)n2C)n(C)c1=O` had a z-score of -0.147.
As for `CCOC(=O)N1CCC(N(CCCOC)C(=O)Nc2cccc(OC)c2)CC1`, the z-score amounted to 0.0606.
`Cc1cccc(NCC(O)Cn2cnc3c2c(=O)n(C)c(=O)n3C)c1` (stereo not drawn) displayed a z-score of 0.151.
`CC1(C)Cc2c(sc(/N=C/N3CCCC3)c2C#N)C(C)(C)N1` came in with a z-score of 0.168.
As for `O=c1c(Cc2ccccc2)c(O)nc2n1CCS2`, the figure is -0.373; as for `CCCCCC(C)n1[nH]c(=O)cc1N` (stereo not drawn), -0.135; as for `CN1CCN(S(=O)(=O)c2cccc(S(=O)(=O)c3ccc(Cl)cc3)c2)CC1`, 0.2.
Next, `CC(C)c1nc(N2CCOCC2)c(C#N)c2c1CCC2`: 0.532.
Next, `CCCc1cc(=O)[nH]c(SCc2cccc(C)c2)n1`: -0.763.
In turn, `CC1(C)OC(c2ccccc2)=C/C(=C/C=Nc2ccccc2)O1` came in with a z-score of -0.134.
`CC1=NN(c2ccccc2)C(=O)C1N=Nc1ccc(N)cc1` (stereo not drawn) showed a z-score of -0.073.
As to `O=C(NCc1cccs1)C1CC(c2ccccc2O)=NO1` (stereo not drawn), the z-score is -0.098.
Next, `CCOC(=O)c1ccccc1NC(=O)Cc1sc(-c2cccnc2)nc1-c1ccc(C)cc1`: -0.0425.
In the case of `CN(C)c1ccc(NC(=O)/C=C/c2c(Cl)cccc2Cl)cc1`, the z-score was -0.479.
As to `O=C(CSc1nc2c(c(C(F)(F)F)n1)CCc1ccccc1-2)NCc1ccco1`, the z-score is -0.601.
As for `O=C(CCC1N=C2c3ccccc3N=C(SCc3cccc(Cl)c3)N2C1=O)NCc1ccco1` (stereo not drawn), the figure is -0.138; as for `Fc1ccc(CN2C3=NCCCN3c3ccccc32)cc1`, -0.37; as for `COc1ccccc1C(=O)NNC1CC(=O)N(c2ccc3c(c2)OCCO3)C1=O` (stereo not drawn), -1.97.
Compound `Cc1cc(/C=C2\NC(=O)N(Cc3ccc(Cl)cc3)C2=O)c(C)n1C` gave a z-score of 0.00862.
`Cn1cnnc1SCC(=O)Nc1c(F)cc(F)cc1Br` showed a z-score of -0.0427.
As for `COc1ccc(NC(=O)c2ccc(-n3cccn3)nc2)cc1`, the figure is -0.017; as for `COc1ccc(C(CNC(=O)c2ccc3c(c2)C(=O)N(CCC(C)C)C3=O)N2CCOCC2)cc1` (stereo not drawn), 0.332.
Next, `CN(c1ccccc1C(=O)NC1CC2CCC1C2)S(=O)(=O)c1ccccc1` (stereo not drawn): -0.356; `COc1nc(C)nc2c1sc(=S)n2C`: -1.07; `COc1cc(C(=O)Nc2nc3ccc(S(=O)(=O)N4CCOCC4)cc3s2)cc(OC)c1OC`: -0.147.

These data come from PubChem BioAssay AID488969 (Vanderbilt High Throughput Screening Facility, 2010).
